# Test results published in PubChem BioAssay (NCI).
#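 Cultured in 96-well plates, cells were exposed to test compound for 48 hours across five concentrations. GI50 marks 50% less growth.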 A number of entries come with more than one value. This is not the full list of results. There may be further records. Values given together repeat one measurement across runs, samples, wells, individuals or studies.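 TGI: concentration producing complete growth inhibition.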 Records carry a tag for their origin. Letters hold for one entry only.
# Key:
# Test in all cases: DTP human tumour cell line panel, 48 h
# SF-268 CNS = test system: SF-268 CNS
# RXF 393 renal = test system: RXF 393 renal
# DU-145 prostate = test system: DU-145 prostate
# HL-60(TB) leukemia = test system: HL-60(TB) leukemia
# 786-0 renal = test system: 786-0 renal
# SK-OV-3 ovarian = test system: SK-OV-3 ovarian
# IGROV1 ovarian = test system: IGROV1 ovarian
# UO-31 renal = test system: UO-31 renal
# MCF7 breast = test system: MCF7 breast
# SR leukemia = test system: SR leukemia
# A498 renal = test system: A498 renal
# SF-539 CNS = test system: SF-539 CNS
# A549 NSCLC = test system: A549 NSCLC
# HCC-2998 colon = test system: HCC-2998 colon
# NCI-H522 lung = test system: NCI-H522 lung
# KM12 colon = test system: KM12 colon
# MALME-3M melanoma = test system: MALME-3M melanoma
# HOP-92 NSCLC = test system: HOP-92 NSCLC
# COLO 205 colon = test system: COLO 205 colon
# BT-549 breast = test system: BT-549 breast
# U251 CNS = test system: U251 CNS
# LOX IMVI melanoma = test system: LOX IMVI melanoma
# SK-MEL-2 melanoma = test system: SK-MEL-2 melanoma
# MOLT-4 leukemia = test system: MOLT-4 leukemia
# PC-3 prostate = test system: PC-3 prostate
# UACC-257 melanoma = test system: UACC-257 melanoma
# MDA-MB-231 breast = test system: MDA-MB-231 breast
# SK-MEL-28 melanoma = test system: SK-MEL-28 melanoma
# M14 melanoma = test system: M14 melanoma
# HS 578T breast = test system: HS 578T breast
# CAKI-1 renal = test system: CAKI-1 renal
# EKVX NSCLC = test system: EKVX NSCLC
# TK-10 renal = test system: TK-10 renal
# MDA-MB-435 = test system: MDA-MB-435
smiles,measurement,setting,value
COc1c(OCCCN2CCOCC2)ccc2c3n(c(=NC(=O)c4cnc(N)nc4)nc12)CCN3,GI50,SF-268 CNS,"199 nM [1 test] and 36.4 nM, 155 nM, 54.6 nM [mean of 2 tests]"
same,GI50,RXF 393 renal,"102 nM [1 test] and 49.7 nM, 68.5 nM, 22.6 nM [mean of 2 tests]"
same,TGI,RXF 393 renal,"425 nM [1 test] and 319 nM, 435 nM, 145 nM [mean of 2 tests]"
same,GI50,DU-145 prostate,"195 nM, 219 nM [1 test] and 66.8 nM, 43.7 nM [mean of 2 tests]"
same,GI50,HL-60(TB) leukemia,"6.05 nM [1 test] and 27.4 nM, 26.7 nM, < 10 nM [mean of 2 tests]"
same,TGI,786-0 renal,"> 75 µM [sample A, mean of 2 tests] and 2.64 µM [sample B, 1 test] and > 100 µM [sample C, 1 test]"
same,GI50,SK-OV-3 ovarian,"8.45 nM, < 10 nM [1 test] and 9.66 nM, < 14.4 nM [mean of 2 tests]"
same,GI50,IGROV1 ovarian,"12.8 nM, 6.69 nM [1 test] and 7.5 nM, < 10 nM [mean of 2 tests]"
same,TGI,UO-31 renal,"> 75 µM [sample A, 1 test] and > 100 µM [sample B, mean of 2 tests] and 730 nM [sample C, 1 test]"
same,GI50,MCF7 breast,"8.04 nM [1 test] and 7.5 nM, < 10.4 nM, < 10 nM [mean of 2 tests]"
same,TGI,SR leukemia,"> 75 µM [sample A, mean of 2 tests] and 7.26 µM [sample B, 1 test] and > 10 µM [sample C, 1 test]"
same,GI50,A498 renal,"7.5, 21.1, 38.7, 13.9 nM [separate samples]"
same,TGI,A498 renal,"35.9, 139, 231, 53.5 nM [separate samples]"
same,GI50,SF-539 CNS,"128 nM [1 test] and 52.7 nM, 64 nM, 37.5 nM [mean of 2 tests]"
same,GI50,A549 NSCLC,"29 nM, 92.4 nM [1 test] and 43.6 nM, 35.9 nM [mean of 2 tests]"
same,TGI,A549 NSCLC,"826 nM, > 10 µM [1 test] and > 75 µM, > 100 µM [mean of 2 tests]"
same,GI50,HCC-2998 colon,"162 nM [1 test] and 71.5 nM, 79.1 nM, 52.8 nM [mean of 2 tests]"
same,TGI,HCC-2998 colon,"> 10 µM [1 test] and 5.17 µM, 1.31 µM, 1.41 µM [mean of 2 tests]"
same,TGI,NCI-H522 lung,"> 10 µM [1 test] and > 75 µM, 2.72 µM, > 100 µM [mean of 2 tests]"
same,TGI,KM12 colon,"> 10 µM, 4.26 µM [1 test] and > 29.8 µM, 3.11 µM [mean of 2 tests]"
same,GI50,MALME-3M melanoma,"153 nM [1 test] and 27.7 nM, 33.6 nM, 43.6 nM [mean of 2 tests]"
same,GI50,HOP-92 NSCLC,"10.3 nM [1 test] and 11.2 nM, < 10.7 nM, < 10 nM [mean of 2 tests]"
same,TGI,HOP-92 NSCLC,"140 nM [1 test] and 434 nM, < 28.9 nM, 143 nM [mean of 2 tests]"
same,TGI,COLO 205 colon,"1.59 µM, 1.4 µM [1 test] and > 75 µM, 1.89 µM [mean of 2 tests]"
same,GI50,BT-549 breast,"169 nM [1 test] and 61.7 nM, 74.6 nM, 36.7 nM [mean of 2 tests]"
same,TGI,BT-549 breast,"5.77 µM [1 test] and 690 nM, 1.42 µM, 2.18 µM [mean of 2 tests]"
same,GI50,U251 CNS,"344 nM [1 test] and 152 nM, 187 nM, 63.5 nM [mean of 2 tests]"
same,TGI,LOX IMVI melanoma,"> 10 µM, 1.55 µM [1 test] and 9.48 µM, 1.67 µM [mean of 2 tests]"
same,TGI,SK-MEL-2 melanoma,"2.44 µM [1 test] and 12.3 µM, 1.38 µM, 2.69 µM [mean of 2 tests]"
same,TGI,MOLT-4 leukemia,"> 75 µM [sample A, mean of 2 tests] and 3.92 µM [sample B, mean of 2 tests] and > 10 µM [sample C, 1 test]"
same,GI50,PC-3 prostate,"77.7 nM [1 test] and 38.1 nM, 25.7 nM, 24.6 nM [mean of 2 tests]"
same,TGI,UACC-257 melanoma,"> 55.8 µM [sample A, mean of 2 tests] and 719 nM [sample B, mean of 2 tests] and 2.6 µM [sample C, 1 test]"
same,TGI,MDA-MB-231 breast,"> 10 µM [1 test] and > 75 µM, 8.4 µM, 3.85 µM [mean of 2 tests]"
same,GI50,SK-MEL-28 melanoma,"97.3 nM [1 test] and 45.5 nM, 86.4 nM, 28.9 nM [mean of 2 tests]"
same,TGI,M14 melanoma,"> 10 µM [1 test] and > 75 µM, 1.78 µM, 2.15 µM [mean of 2 tests]"
same,GI50,HS 578T breast,"33.1 nM, 4.64 nM [1 test] and 20.3 nM, < 10 nM [mean of 2 tests]"
same,TGI,HS 578T breast,"888 nM, 94 nM [1 test] and 639 nM, 250 nM [mean of 2 tests]"
same,GI50,CAKI-1 renal,"66.5 nM [1 test] and 67.2 nM, 93.5 nM, 29.9 nM [mean of 2 tests]"
same,GI50,EKVX NSCLC,"86.3 nM [1 test] and 42.7 nM, 45 nM, 18.2 nM [mean of 2 tests]"
same,TGI,EKVX NSCLC,"> 35 µM [sample A, mean of 2 tests] and 930 nM [sample B, mean of 2 tests] and 2.71 µM [sample C, 1 test]"
same,GI50,TK-10 renal,"27.4 nM [1 test] and < 15.7 nM, < 16.1 nM, < 13 nM [mean of 2 tests]"
same,TGI,MDA-MB-435,"> 10 µM [1 test] and > 75 µM, 2.33 µM, 2.25 µM [mean of 2 tests]"
